In all, about 320,000 compounds went through this assay and about 200 (0.062%) were called active. The inconclusive results got no clear call from the source; some entries with a clear call stand among them for comparison. Calls come from the whole dose curve; as a rule, active = well fitted activation curve with a large enough effect; inconclusive = small, poorly fitted or top-dose-only effect; inactive = no such curve, though single readings can be large or run the other way. No potency is given beside an inconclusive call; the fits are too rough.
Experiment: qHTS assay for re-activators of p53 using a Luc reporter; note: nearly all actives have a fitted effect of over 45% in size
Details: H1299 p53-A138V BP100-luciferase reporter, luminescence, 24 h; series mostly up to 92.2 µM
Method in brief: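 H1299 (p53-null), stable ts p53-A138V + BP100-Luc; 1000 cells/well, Opti-MEM/10% FBS; cpd 4 pt, 1:5; 24 h, 37 deg C, 5% CO2; detection reagent 10 min RT; luminescence.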
Potency is the fitted concentration of half-maximal effect; tags give direction and shape of the fitted curve.

Structure (SMILES)	Potency
O=C(N/N=C/c1ccccn1)c1ccc(Cl)cc1	inconclusive [activator, partial curve, poor fit]
COc1cc(C2NC(=S)NC(C)=C2C(=O)Nc2ccc(C)cc2)ccc1O (stereo unspecified)	inconclusive [activator, partial curve, poor fit]
Cc1ccccc1NC(=O)CSc1nnc(-c2ccccc2)n1-c1ccccc1	inactive
COc1ccc(CCC(C)NCc2ccc(F)cc2)cc1 (stereo unspecified)	inconclusive [activator, single point]
Cc1cccc(C(=O)NNC2=C(C(=O)C(F)(F)F)CCC2)c1O	inconclusive [activator, single point]
COc1ccc(/C=N/Nc2nccnc2Cl)c(OC)c1	inconclusive [activator, partial curve, poor fit]
COc1ccc2cc(C(=O)NCc3ccco3)c(=Nc3ccc(C(=O)O)cc3)oc2c1	inconclusive [activator, full curve, poor fit]
Cc1c(C(=O)NNC(=S)Nc2cccc(Cl)c2)nnn1-c1ccccc1	inconclusive [activator, partial curve, poor fit]
O=C(CC(Nc1ccccc1)C(=O)O)c1ccccc1 (stereo unspecified)	inconclusive [activator, partial curve, poor fit]
O=C(O)Cc1coc2cc3c(cc12)CCC3	inactive
c1cncc(-c2noc(CC3CCCCC3)n2)c1	inconclusive [activator, partial curve, poor fit]
CCCNC(=O)c1cc(-c2ccc(Br)cc2)on1	inconclusive [activator, partial curve, poor fit]
COc1ccc(C(=O)N/N=C/C(Br)=C/c2ccccc2)cc1	inconclusive [activator, full curve, poor fit]
O=C(O)C1CCN(C(=O)OCc2ccccc2)CC1	inconclusive [activator, partial curve, poor fit]
CCCNC(=O)COC(=O)c1cc(-c2ccc(OC)cc2)nc2ccccc12	inactive
CN(C)c1ccc(C#Cc2ccc3cc(CCCO)oc(=O)c3c2)cc1	inactive
O=C(COc1ccccc1Cl)NCCc1ccc2c(c1)OCCO2	inconclusive [activator, full curve]
O=C(N/N=C/c1ccc[nH]1)c1cc2ccccc2cc1O	inconclusive [activator, full curve, poor fit]
CCc1ccc(N2CC(C(=O)Nc3cccc(C(=O)NC4CC4)c3)CC2=O)cc1 (stereo unspecified)	inconclusive [activator, partial curve, poor fit]
CC(=O)c1ccc(NS(=O)(=O)c2ccc(N/C=C/C(=O)c3ccc(F)cc3)cc2)cc1	inactive
CC1CCCC(C)N1C(=O)COC(=O)c1cc(=O)[nH]c2ccccc12 (stereo unspecified)	inconclusive [activator, single point]
Cc1ccnc(NC(=O)CNC(=O)c2ccc(C)s2)c1	inconclusive [activator, partial curve, poor fit]

Structure (SMILES)	Potency
O=c1c2ccccc2nc2ccc(NCc3ccco3)nn12	inconclusive [activator, partial curve, poor fit]
c1ccc(CSc2nnc(-c3c[nH]c4ccccc34)o2)cc1	inconclusive [activator, partial curve, poor fit]
Cc1cc(C(=O)N/N=C/c2ccc(C)s2)n[nH]1	inconclusive [activator, partial curve, poor fit]
O=C(N/N=C/c1ccccn1)c1cc(-c2ccc(Br)cc2)nc2ccccc12	inconclusive [activator, full curve, poor fit]
Cc1cc(C)cc(OCC(=O)Nc2cccc(C(=O)O)c2)c1	inconclusive [activator, partial curve, poor fit]
O=[N+]([O-])c1cc(-c2ccc(C(=S)N3CCOCC3)o2)ccc1Cl	inconclusive [activator, partial curve, poor fit]
C/C(=N\NC(=O)COc1ccc(C(C)(C)C)cc1)c1cc2ccccc2o1	inconclusive [activator, partial curve, poor fit]
Cc1ccc(C(=O)C[n+]2ccc3ccccc3c2)cc1	inconclusive [activator, full curve, poor fit]
O=C(NC(=S)Nc1ccccc1[N+](=O)[O-])c1ccccc1	inconclusive [activator, full curve, poor fit]
O=C1c2ccccc2C(=O)N1CCC(=O)N1CCCc2ccccc21	inconclusive [activator, single point]
Nc1c(C(=O)c2ccc(Cl)cc2)sc2nsc(SCCN3CCOCC3)c12	inactive
Cc1ccc2oc(C(=O)N3CCN(c4cccc(C)n4)CC3)c(C)c2c1	inconclusive [activator, full curve, poor fit]
Oc1ccccc1-c1cc(-c2cccc(F)c2)n[nH]1	inconclusive [activator, partial curve, poor fit]
CC(=O)Nc1ccccc1-c1nn[nH]n1	inactive
O=C(NNC1=C(C(=O)C(F)(F)F)CCC1)c1ccccc1O	inactive
Cc1ccccc1C(=O)N1CC(=O)Nc2ccc(F)cc2C1c1ccc(F)cc1 (stereo unspecified)	inactive
O=C(N/N=C/c1ccc(F)c(F)c1)c1cc2c(s1)-c1ccccc1CC2	inactive
Cc1nc(-c2ccccc2)sc1-c1ccnn1C	inconclusive [activator, partial curve, poor fit]
Cc1cccnc1Nc1nc(-c2ccc(O)cc2O)cs1	inconclusive [activator, partial curve, poor fit]
COc1ccc(C(=O)N(C)C2CCCc3ccccc32)cc1OC1CCN(C(C)C)CC1 (stereo unspecified)	inconclusive [activator, partial curve, poor fit]
O=[N+]([O-])c1ccc(N/N=C/c2ccccc2O)cc1	inconclusive [activator, partial curve]
CCOc1ccc(/C=N/NC(=O)c2ccc(CSc3nc4ccccc4[nH]3)cc2)cc1	inactive

Structure (SMILES)	Potency
CCOc1ccc(OCCC(=O)OCC(=O)NCc2ccc(Cl)cc2)cc1	inactive
O=C(OCc1nc(-c2ccccc2)oc1COC(=O)c1ccco1)c1ccco1	inconclusive [activator, single point]
O=C(CSCc1cccs1)N1CCCC1	inconclusive [activator, partial curve, poor fit]
Cn1c(=O)[nH]c(=O)c2c1nc(SCCC(=O)O)n2Cc1cccc(Br)c1	inactive
CC(=O)c1ccc(NC(=O)CSCCO)cc1	inconclusive [activator, partial curve, poor fit]
O=C(CSc1nnc2c(n1)[nH]c1ccccc12)NCc1ccccc1F	inconclusive [activator, single point]
N#Cc1c(NC(=O)c2cnccn2)sc2c1CCCC2	inconclusive [activator, partial curve, poor fit]
O=C(CS(=O)(=O)c1ccccc1)Nc1ccc(Br)cn1	inconclusive [activator, partial curve, poor fit]
CC(C)(C)n1[nH]c2c3c(ccc2c1=O)C(=O)c1ccccc1C3=O	inconclusive [activator, partial curve, poor fit]
Cc1ccc2c(c1)c1c(n2CC(O)CN2CCC(C)CC2)CCCC1 (stereo unspecified)	inactive
N#Cc1cccc(NC(=O)CSc2ccc3c4c(cccc24)C(=O)c2ccccc2-3)c1	inactive
O=C(OCC(=O)N1CCCC1)c1ccc(Cl)nc1	inconclusive [activator, partial curve, poor fit]
COc1cccc(C(=O)/C=C/Nc2cc(C)ccc2O)c1	inconclusive [activator, partial curve, poor fit]
COc1ccc(NC2CC(=O)N(c3cc([N+](=O)[O-])ccc3C)C2=O)cc1 (stereo unspecified)	inactive
CCn1cc(C(=O)Nc2ccccc2C(=O)OC)c(=O)c2ccc(C)nc21	inconclusive [activator, partial curve, poor fit]
CCOc1ccc(CC(=O)C2C(=O)CC(C)(C)CC2=O)cc1OCC	inconclusive [activator, single point]
CCC(C(=O)OCC(=O)Nc1cccc(C(C)=O)c1)c1ccccc1 (stereo unspecified)	inconclusive [activator, partial curve, poor fit]
COc1ccc(-n2nnc3c(SCC(=O)NCc4ccco4)ncnc32)cc1	inconclusive [activator, partial curve, poor fit]
O=[N+]([O-])c1ccc(/C=N/Nc2ccnc3cc(Cl)ccc23)o1	inconclusive [activator, partial curve, poor fit]
COc1ccc(N2CCN(CCCNC(=O)C(=O)c3c[nH]c4ccccc34)CC2)cc1	inconclusive [activator, partial curve, poor fit]
O=C(Nc1ccccn1)C(=O)N1CCCCC1	inconclusive [activator, single point]
N=c1c(S(=O)(=O)c2ccccc2)cc2c(=O)n3ccccc3nc2n1Cc1ccco1	inconclusive [activator, single point]

Source: PubChem BioAssay AID504706 (National Center for Advancing Translational Sciences (NCATS), 2011)
